The values that follow come from PMC8948191.

By UniProt entry, the sequences of proteins in these tests, tags left out.
UniProt O00429: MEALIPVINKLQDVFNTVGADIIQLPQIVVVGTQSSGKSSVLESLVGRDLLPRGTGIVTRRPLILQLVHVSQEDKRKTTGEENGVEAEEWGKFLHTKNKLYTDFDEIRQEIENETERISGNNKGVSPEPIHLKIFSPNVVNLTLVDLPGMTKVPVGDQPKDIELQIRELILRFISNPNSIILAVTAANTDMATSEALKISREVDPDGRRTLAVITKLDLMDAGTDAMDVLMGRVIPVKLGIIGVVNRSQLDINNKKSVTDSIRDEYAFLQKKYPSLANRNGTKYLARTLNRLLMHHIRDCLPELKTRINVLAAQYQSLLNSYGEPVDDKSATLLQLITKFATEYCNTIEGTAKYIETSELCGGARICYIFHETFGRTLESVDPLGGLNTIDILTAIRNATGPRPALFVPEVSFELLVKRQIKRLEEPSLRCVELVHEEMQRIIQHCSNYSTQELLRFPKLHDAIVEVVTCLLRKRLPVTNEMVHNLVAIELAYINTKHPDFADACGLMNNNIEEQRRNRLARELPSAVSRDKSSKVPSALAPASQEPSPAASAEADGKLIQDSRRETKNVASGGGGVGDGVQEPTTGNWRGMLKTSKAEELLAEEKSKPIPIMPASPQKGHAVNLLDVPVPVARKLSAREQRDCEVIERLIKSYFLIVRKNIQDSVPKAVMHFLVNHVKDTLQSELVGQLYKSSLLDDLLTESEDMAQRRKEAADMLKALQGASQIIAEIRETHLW
UniProt Q9NQG6: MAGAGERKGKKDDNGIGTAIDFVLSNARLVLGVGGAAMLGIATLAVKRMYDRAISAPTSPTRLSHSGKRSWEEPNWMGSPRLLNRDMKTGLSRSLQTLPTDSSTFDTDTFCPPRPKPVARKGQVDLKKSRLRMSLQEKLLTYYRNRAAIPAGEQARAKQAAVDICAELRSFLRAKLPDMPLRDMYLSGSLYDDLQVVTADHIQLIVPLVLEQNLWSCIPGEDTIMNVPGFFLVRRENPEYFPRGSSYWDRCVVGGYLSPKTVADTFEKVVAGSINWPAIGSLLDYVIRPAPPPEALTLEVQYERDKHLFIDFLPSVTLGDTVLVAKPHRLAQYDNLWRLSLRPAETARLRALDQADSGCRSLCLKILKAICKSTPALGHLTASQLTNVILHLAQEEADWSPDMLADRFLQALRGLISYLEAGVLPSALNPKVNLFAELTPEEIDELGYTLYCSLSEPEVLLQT
UniProt Q9VQE0: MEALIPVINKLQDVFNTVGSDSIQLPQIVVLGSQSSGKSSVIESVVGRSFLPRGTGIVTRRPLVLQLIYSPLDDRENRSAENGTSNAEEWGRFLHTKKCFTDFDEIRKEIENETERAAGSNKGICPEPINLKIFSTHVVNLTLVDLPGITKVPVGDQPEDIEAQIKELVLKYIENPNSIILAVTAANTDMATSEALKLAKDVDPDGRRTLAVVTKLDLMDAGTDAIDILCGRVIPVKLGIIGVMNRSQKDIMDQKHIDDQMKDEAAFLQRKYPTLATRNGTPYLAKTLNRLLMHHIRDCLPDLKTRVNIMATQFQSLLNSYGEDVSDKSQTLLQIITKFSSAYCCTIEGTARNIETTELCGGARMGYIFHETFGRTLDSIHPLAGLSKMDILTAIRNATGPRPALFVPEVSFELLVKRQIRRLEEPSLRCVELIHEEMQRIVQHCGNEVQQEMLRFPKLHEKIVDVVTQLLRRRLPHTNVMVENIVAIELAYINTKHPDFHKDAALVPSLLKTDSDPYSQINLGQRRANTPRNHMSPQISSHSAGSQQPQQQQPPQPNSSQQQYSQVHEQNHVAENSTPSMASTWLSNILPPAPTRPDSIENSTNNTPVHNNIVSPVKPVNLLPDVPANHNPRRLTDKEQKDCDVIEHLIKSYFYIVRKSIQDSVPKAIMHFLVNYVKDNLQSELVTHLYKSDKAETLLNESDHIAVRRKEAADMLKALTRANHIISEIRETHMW
UniProt Q7KN62: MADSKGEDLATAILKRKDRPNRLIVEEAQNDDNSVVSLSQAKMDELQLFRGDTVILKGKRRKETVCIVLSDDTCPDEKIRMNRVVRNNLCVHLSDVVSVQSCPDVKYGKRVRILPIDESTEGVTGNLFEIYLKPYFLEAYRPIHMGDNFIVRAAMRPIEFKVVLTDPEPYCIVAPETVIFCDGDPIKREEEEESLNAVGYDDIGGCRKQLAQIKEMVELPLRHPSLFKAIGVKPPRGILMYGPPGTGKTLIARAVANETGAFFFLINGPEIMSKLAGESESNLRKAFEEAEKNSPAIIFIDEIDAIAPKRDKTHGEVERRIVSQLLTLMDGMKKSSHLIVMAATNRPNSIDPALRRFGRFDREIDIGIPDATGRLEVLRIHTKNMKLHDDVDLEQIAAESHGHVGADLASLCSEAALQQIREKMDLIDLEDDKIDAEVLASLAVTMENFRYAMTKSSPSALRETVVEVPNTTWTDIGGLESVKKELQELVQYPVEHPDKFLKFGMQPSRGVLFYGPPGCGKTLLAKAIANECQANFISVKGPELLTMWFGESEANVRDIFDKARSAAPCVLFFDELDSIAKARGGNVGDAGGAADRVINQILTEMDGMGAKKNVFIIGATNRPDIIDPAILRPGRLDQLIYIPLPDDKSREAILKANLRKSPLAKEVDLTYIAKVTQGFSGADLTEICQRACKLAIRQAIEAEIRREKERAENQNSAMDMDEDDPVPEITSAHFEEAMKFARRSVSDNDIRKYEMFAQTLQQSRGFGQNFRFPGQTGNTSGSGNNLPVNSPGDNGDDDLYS

These are yes or no findings as the source states them, for the method shown. For some of these results: In cells and extracts the contact can be indirect. Some entries that bind do so weakly or less than the wild type. Tags and fused reporters may be left off the sequences shown.

For assay [1], the target named is T1, LAMP1–MiD49 (FLAG-tagged MiD49 fused to LAMP1) (UniProt Q96C03).
T1 sequence: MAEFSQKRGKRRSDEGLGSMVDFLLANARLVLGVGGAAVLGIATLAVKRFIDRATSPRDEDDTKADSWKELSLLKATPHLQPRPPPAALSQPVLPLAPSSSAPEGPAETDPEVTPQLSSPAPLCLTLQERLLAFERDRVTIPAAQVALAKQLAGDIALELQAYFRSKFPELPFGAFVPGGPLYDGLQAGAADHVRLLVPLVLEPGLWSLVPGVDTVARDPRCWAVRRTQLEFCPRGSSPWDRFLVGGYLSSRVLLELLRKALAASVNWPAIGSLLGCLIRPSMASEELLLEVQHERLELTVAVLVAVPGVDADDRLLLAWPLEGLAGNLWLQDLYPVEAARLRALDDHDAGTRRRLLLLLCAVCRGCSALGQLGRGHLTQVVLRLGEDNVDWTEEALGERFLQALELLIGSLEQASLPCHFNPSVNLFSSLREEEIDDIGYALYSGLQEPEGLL
As to the kind of experiment: ectopic recruitment to lysosomes by a LAMP1 fusion (immunofluorescence); HeLa cells expressing FLAG-tagged LAMP1 fusions; endogenous Drp1 seen with a mouse anti-Drp1 antibody; colocalisation by Pearson's coefficient.

In the next assay the target is T2, FLAG-CLUH (human) (UniProt O75153).
T2 sequence: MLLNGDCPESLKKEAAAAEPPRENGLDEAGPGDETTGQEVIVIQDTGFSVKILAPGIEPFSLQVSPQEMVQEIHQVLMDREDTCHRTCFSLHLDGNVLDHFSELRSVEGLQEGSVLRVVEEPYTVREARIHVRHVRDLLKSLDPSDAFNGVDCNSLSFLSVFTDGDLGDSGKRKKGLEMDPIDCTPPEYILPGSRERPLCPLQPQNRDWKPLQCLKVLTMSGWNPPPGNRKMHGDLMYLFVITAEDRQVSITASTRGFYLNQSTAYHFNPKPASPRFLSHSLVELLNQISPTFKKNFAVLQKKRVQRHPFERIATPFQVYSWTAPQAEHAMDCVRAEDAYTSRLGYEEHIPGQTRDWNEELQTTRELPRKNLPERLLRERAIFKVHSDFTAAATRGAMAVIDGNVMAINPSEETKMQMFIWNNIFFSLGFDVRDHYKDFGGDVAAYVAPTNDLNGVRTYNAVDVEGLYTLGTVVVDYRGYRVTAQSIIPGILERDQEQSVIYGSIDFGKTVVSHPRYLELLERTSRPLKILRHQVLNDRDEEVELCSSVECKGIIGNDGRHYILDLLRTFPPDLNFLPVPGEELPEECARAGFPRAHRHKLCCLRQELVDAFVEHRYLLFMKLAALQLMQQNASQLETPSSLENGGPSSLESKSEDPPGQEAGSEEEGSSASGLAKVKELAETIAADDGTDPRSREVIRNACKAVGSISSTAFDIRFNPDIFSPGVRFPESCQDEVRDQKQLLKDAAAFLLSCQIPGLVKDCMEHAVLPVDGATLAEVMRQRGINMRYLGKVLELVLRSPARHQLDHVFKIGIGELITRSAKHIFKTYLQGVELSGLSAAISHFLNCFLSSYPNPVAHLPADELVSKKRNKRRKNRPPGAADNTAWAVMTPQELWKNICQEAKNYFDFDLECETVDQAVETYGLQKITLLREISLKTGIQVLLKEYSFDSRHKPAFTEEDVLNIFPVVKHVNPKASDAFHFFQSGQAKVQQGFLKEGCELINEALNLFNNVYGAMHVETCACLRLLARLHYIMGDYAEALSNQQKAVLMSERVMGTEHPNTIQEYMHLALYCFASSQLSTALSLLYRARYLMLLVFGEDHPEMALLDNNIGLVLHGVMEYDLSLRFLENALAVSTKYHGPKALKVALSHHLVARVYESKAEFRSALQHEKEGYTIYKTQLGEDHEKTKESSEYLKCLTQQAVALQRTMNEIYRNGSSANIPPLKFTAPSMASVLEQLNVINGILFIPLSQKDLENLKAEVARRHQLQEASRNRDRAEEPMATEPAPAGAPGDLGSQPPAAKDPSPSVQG
The assay is described as follows: co-IP; lysates (RIPA buffer) of HeLa cells transfected with the indicated constructs; IP with mouse anti-FLAG antibody, Dynabeads Protein G; western blot. (Immunoblotting shows a protein as a band on a membrane.)

The target in assay [2] is T3, FLAG-tagged Clu (Drosophila Clueless) (Drosophila) (UniProt A1ZAB5).
T3 sequence: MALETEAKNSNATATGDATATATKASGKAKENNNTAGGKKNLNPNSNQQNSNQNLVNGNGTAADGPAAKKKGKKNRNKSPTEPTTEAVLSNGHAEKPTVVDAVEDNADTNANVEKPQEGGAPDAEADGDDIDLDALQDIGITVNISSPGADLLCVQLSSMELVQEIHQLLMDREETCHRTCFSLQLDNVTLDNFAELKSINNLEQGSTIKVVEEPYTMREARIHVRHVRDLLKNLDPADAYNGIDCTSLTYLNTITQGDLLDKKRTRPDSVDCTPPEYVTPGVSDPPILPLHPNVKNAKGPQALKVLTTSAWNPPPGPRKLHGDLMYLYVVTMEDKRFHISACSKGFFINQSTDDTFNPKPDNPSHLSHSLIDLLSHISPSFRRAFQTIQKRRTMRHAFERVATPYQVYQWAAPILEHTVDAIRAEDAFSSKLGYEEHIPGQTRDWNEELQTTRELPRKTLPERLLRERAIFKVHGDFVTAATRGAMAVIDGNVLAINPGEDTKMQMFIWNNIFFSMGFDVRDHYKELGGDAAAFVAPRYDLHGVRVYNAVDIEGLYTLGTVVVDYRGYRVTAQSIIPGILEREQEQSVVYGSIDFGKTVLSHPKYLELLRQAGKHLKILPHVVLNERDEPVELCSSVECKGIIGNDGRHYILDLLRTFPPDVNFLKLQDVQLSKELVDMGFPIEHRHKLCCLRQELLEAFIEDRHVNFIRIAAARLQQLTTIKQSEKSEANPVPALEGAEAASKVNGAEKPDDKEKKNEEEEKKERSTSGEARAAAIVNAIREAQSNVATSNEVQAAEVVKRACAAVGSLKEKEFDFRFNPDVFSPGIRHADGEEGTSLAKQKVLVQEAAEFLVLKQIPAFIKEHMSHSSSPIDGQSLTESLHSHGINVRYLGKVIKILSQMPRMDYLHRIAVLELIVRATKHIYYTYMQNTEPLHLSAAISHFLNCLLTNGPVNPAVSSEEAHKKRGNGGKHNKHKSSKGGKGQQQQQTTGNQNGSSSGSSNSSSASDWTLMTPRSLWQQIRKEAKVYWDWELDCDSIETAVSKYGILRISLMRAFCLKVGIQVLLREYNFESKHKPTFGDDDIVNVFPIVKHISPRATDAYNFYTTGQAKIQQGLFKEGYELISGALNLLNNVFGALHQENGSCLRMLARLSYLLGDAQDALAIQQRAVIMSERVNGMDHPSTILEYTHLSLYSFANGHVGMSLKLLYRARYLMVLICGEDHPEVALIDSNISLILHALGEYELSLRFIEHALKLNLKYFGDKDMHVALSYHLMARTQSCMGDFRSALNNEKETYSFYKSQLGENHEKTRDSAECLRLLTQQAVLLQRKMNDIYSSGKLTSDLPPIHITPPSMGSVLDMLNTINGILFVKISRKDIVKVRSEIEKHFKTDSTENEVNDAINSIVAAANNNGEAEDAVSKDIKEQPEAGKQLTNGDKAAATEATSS
As to the kind of experiment: co-IP; lysates (RIPA buffer) of Drosophila S2 cells transfected with tagged constructs; IP with mouse anti-FLAG or mouse anti-Myc antibody, Dynabeads Protein G; western blot.

Regarding “Drp1, endogenous in HeLa cells (from UniProt O00429 1-736)”, the binding entry in assay [1] was “binds”.

On to “MiD51 (in pRK5-Myc) (from UniProt Q9NQG6 1-463)”, for which, in the assay with FLAG-CLUH (human), the binding result is given as “no binding”. As to “Myc-tagged Drp1 (Drosophila) (from UniProt Q9VQE0 1-735)”, in assay [2], the binding result was “binds”. For “Valosin-containing protein (VCP), overexpressed in S2 cells (from UniProt Q7KN62 1-801)”, the binding entry in assay [2] is recorded as “no binding”.
